# Measurements as given in PubChem BioAssay (NCATS).
# Where “and” joins values, the source holds several entries; their conditions need not be identical. Equal values may be shown once. The inconclusive results got no clear call from the source; some entries with a clear call stand among them for comparison. Where the call is inconclusive, the potency comes from a doubtful curve fit. Some compounds were tested as several samples or in several runs, with calls that do not always agree. Calls of active or inactive are those of the source. Calls come from the whole dose curve; as a rule, active = well fitted curve in the direction sought with a large enough effect; inconclusive = small, poorly fitted or top-dose-only effect, or another doubt; inactive = no such curve, though single readings can be large; an effect the other way counts as inactive or inconclusive.
# Assay: qHTS for Inhibitors of Plasmodium falciparum (HB3) proliferation (AID 504318); note: nearly all actives have a fitted effect of over 60% in size
# Settings: P. falciparum HB3 in erythrocytes, SYBR Green DNA, 72 h; series mostly up to 7.21 µM
# How it was run: (§1)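 Erythrocytes infected with P. falciparum line (0.3% parasitemia, 2.5% hematocrit final) incubated with compounds 72 h at 37 °C, 5% CO2; SYBR Green lysis buffer added, fluorescence read next day. Normalized to 0.29 uM artemisinin and DMSO.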
# Potency is the fitted concentration of half-maximal effect; tags give direction and shape of the fitted curve.
row,SMILES,Potency
1,CCCC[C@]12Cc3c(ccc4ccccc34)[C@H](O1)C1=C(O2)C(=O)c2ccccc2C1=O,active: 1.51 µM
2,COc1cc2c(cc1OC)[C@@H]1O[C@](CCCCN3C(=O)c4ccccc4C3=O)(C2)Oc2cc(C)n(-c3ccccc3)c(=O)c21,active: 1.2 µM
3,Cc1ccccc1Nc1oc(-c2ccccc2)nc1CCc1ccccc1,inactive and active: 1.69 µM
4,CC(C)CON=C1C[C@@H](O)[C@@H](O)[C@@H]2[C@H]3C(=O)N(C4CCCCC4)C(=O)[C@@H]3CC[C@H]12,inactive
5,COC(=O)C1=C(C(=O)OC)[C@@H]2N(Cc3ccccc3)c3ccccc3[C@@]23C[C@@H](C(=O)OC)N(C(=O)NCCBr)C3=N1,inactive
6,CCCCCCC(=O)Cc1cc(OC)c(OC)cc1C=C(C(=O)OCC)C(=O)OCC,inactive
7,CC(C)CON=C1C[C@@H](O)[C@@H](O)[C@@H]2[C@H]3C(=O)N(c4cccc(Oc5ccccc5)c4)C(=O)[C@@H]3CC[C@H]12,inactive
8,Cc1cc2c(c(=O)n1-c1ccccc1)[C@H]1O[C@](c3ccsc3)(Cc3cc(C#N)ccc31)O2,"inconclusive: 1.69 µM [inhibitor, partial curve]"
9,COc1ccc(OC[C@H]2CN3[C@H](c4ccc(Br)cc4)[C@H](C)CC[C@H]3C(=O)O2)cc1,"inconclusive: 47.8 nM [inhibitor, partial curve, poor fit] and inconclusive: 3.98 µM [inhibitor, single point]"
10,C[C@H]1Cc2c(COc3ccccc3)nc3c(c2CO1)CN(C(=O)Nc1cccc(C#N)c1)CC3,"inconclusive: 1.9 µM [inhibitor, single point] and inactive"
11,C=CC1=C2C=C(C3CC3)N(Cc3ccccc3)C=C2C(=O)C(C)(OC(=O)c2ccco2)C1=O (stereo unspecified),"inconclusive: 3.01 µM [inhibitor, single point] and inactive"
12,CC(Nc1oc(-c2ccccc2)nc1-c1ccccc1)c1ccccc1 (stereo unspecified),"inconclusive: 1.69 µM [inhibitor, single point]"
13,COC(=O)CC=C[C@@H](C)[C@H](OC)c1ccccc1Br,active: 1.9 µM
14,COC(=O)CC1c2ccccc2C(Cc2ccc3c(c2)OCO3)=C(C)N1C(=O)OC (stereo unspecified),"inconclusive: 1.69 µM [inhibitor, single point] and inconclusive: 1.51 µM [inhibitor, partial curve] and inconclusive: 1.9 µM [inhibitor, single point]"
15,COc1cc2c(cc1OC)[C@@H]1O[C@](c3ccsc3)(C2)Oc2cc(C)n(Cc3ccccc3)c(=O)c21,"inconclusive: 1.69 µM [inhibitor, partial curve]"
16,COc1ccc(-c2nc3c(c4c2C[C@H](c2ccccc2)OC4)CN(C(=O)C2CC2)CC3)c(C)c1,"inconclusive: 2.69 µM [inhibitor, single point]"
17,C[C@H]1C[C@@H](C)O[C@@]2(C1)C(=O)N(Cc1ccccc1C(F)(F)F)c1ccccc12,"inconclusive: 1.69 µM [inhibitor, single point]"
18,CC1(C)CC(=O)C2=C(C1)O[C@@]1(CCCCN3C(=O)c4ccccc4C3=O)Cc3ccccc3[C@H]2O1,active: 1.51 µM
19,CCN1C(=NCc2cc(OC)c(OC)c(OC)c2)N[C@@H](c2ccccc2)[C@H](C(=O)OC)[C@H]1C,inactive
20,CC(=O)OC[C@H]1O[C@H](C#Cc2ccc(C(C)(C)C)cc2)C=C[C@H]1OC(C)=O,"inconclusive: 2.33 µM [inhibitor, partial curve]"
21,CC1(C)O[C@@H](C(O)(c2cc(F)c(F)c(F)c2)c2cc(F)c(F)c(F)c2)[C@H](C(O)(c2cc(F)c(F)c(F)c2)c2cc(F)c(F)c(F)c2)O1,active: 0.536 µM
22,COC(=O)CCCC1=CC2=C(c3ccccc3)C(=O)C(C)(OC(=O)C3CCCC3)C(=O)C2=CN1C(CO)CO (stereo unspecified),inactive
23,Nc1ccccc1C(=O)C=Cc1ccc2c(c1)OCO2,"inconclusive: 1.51 µM [inhibitor, single point] and inconclusive: 2.13 µM [inhibitor, partial curve, poor fit]"
24,CC(C)(C)OC(=O)NCCCC1=CC2=CC(=O)C(C)(OC(=O)c3cccs3)C(=O)C2=CO1 (stereo unspecified),inactive
25,COc1ccc(O[C@H]2C=C[C@@H](c3ccccc3)O[C@H]2CON=C(C)CCN2CCCc3nc(C)c(C)cc32)cc1,active: 3.29 µM
26,C=C(C)C(O)C=Cc1ccccc1OC (stereo unspecified),inactive
27,CC[C@H](C)[C@@H](NC(=O)O[C@@H]1C(=O)c2cc(Br)ccc2O[C@H]1c1cccc(OC)c1)C(=O)OC,inactive

# Assay: qHTS for Inhibitors of Plasmodium falciparum (CP250) proliferation (AID 504320)
# Settings: P. falciparum CP250 in erythrocytes, SYBR Green DNA, 72 h; series mostly up to 6.7 µM
# How it was run: as §1
row,SMILES,Potency
1,CCCC[C@]12Cc3c(ccc4ccccc34)[C@H](O1)C1=C(O2)C(=O)c2ccccc2C1=O,"inconclusive: 1.9 µM [inhibitor, single point]"
2,COc1cc2c(cc1OC)[C@@H]1O[C@](CCCCN3C(=O)c4ccccc4C3=O)(C2)Oc2cc(C)n(-c3ccccc3)c(=O)c21,"inconclusive: 2.13 µM [inhibitor, single point]"
3,Cc1ccccc1Nc1oc(-c2ccccc2)nc1CCc1ccccc1,inactive and active: 1.51 µM
4,COc1ccc(OC[C@H]2CN3[C@H](c4ccc(Br)cc4)[C@H](C)CC[C@H]3C(=O)O2)cc1,"inconclusive: 4.78 µM [inhibitor, single point]"
5,C[C@H]1Cc2c(COc3ccccc3)nc3c(c2CO1)CN(C(=O)Nc1cccc(C#N)c1)CC3,"inconclusive: 1.51 µM [inhibitor, single point] and inconclusive: 1.9 µM [inhibitor, partial curve, poor fit]"
6,CC(Nc1oc(-c2ccccc2)nc1-c1ccccc1)c1ccccc1 (stereo unspecified),"inconclusive: 4.26 µM [inhibitor, partial curve, poor fit]"
7,COC(=O)CC=C[C@@H](C)[C@H](OC)c1ccccc1Br,active: 1.35 µM
8,CC1(C)CC(=O)C2=C(C1)O[C@@]1(CCCCN3C(=O)c4ccccc4C3=O)Cc3ccccc3[C@H]2O1,"inconclusive: 4.26 µM [inhibitor, partial curve, poor fit]"
9,CCN1C(=NCc2cc(OC)c(OC)c(OC)c2)N[C@@H](c2ccccc2)[C@H](C(=O)OC)[C@H]1C,inactive
10,CC(=O)OC[C@H]1O[C@H](C#Cc2ccc(C(C)(C)C)cc2)C=C[C@H]1OC(C)=O,"inconclusive: 4.26 µM [inhibitor, partial curve, poor fit]"
11,CC1(C)O[C@@H](C(O)(c2cc(F)c(F)c(F)c2)c2cc(F)c(F)c(F)c2)[C@H](C(O)(c2cc(F)c(F)c(F)c2)c2cc(F)c(F)c(F)c2)O1,active: 0.849 µM
12,Nc1ccccc1C(=O)C=Cc1ccc2c(c1)OCO2,"inconclusive: 3.01 µM [inhibitor, single point] and inconclusive: 1.2 µM [inhibitor, partial curve]"
13,CC(C)(C)OC(=O)NCCCC1=CC2=CC(=O)C(C)(OC(=O)c3cccs3)C(=O)C2=CO1 (stereo unspecified),inactive
14,COc1ccc(O[C@H]2C=C[C@@H](c3ccccc3)O[C@H]2CON=C(C)CCN2CCCc3nc(C)c(C)cc32)cc1,"inconclusive: 4.26 µM [inhibitor, single point]"
